{"source": "paper PMC4336329", "about": "(PLoS ONE, 2015)", "note": "In all, about 310,000 compounds went through this assay and about 2,200 (0.71%) showed an effect of 50% or more. Effects have a minus sign here. Some of the results follow.", "data": [{"biological_target": "human ether-à-go-go-related gene (hERG) potassium channel (human, UniProt Q12809)", "sequence (Q12809 whole entry, looked up)": "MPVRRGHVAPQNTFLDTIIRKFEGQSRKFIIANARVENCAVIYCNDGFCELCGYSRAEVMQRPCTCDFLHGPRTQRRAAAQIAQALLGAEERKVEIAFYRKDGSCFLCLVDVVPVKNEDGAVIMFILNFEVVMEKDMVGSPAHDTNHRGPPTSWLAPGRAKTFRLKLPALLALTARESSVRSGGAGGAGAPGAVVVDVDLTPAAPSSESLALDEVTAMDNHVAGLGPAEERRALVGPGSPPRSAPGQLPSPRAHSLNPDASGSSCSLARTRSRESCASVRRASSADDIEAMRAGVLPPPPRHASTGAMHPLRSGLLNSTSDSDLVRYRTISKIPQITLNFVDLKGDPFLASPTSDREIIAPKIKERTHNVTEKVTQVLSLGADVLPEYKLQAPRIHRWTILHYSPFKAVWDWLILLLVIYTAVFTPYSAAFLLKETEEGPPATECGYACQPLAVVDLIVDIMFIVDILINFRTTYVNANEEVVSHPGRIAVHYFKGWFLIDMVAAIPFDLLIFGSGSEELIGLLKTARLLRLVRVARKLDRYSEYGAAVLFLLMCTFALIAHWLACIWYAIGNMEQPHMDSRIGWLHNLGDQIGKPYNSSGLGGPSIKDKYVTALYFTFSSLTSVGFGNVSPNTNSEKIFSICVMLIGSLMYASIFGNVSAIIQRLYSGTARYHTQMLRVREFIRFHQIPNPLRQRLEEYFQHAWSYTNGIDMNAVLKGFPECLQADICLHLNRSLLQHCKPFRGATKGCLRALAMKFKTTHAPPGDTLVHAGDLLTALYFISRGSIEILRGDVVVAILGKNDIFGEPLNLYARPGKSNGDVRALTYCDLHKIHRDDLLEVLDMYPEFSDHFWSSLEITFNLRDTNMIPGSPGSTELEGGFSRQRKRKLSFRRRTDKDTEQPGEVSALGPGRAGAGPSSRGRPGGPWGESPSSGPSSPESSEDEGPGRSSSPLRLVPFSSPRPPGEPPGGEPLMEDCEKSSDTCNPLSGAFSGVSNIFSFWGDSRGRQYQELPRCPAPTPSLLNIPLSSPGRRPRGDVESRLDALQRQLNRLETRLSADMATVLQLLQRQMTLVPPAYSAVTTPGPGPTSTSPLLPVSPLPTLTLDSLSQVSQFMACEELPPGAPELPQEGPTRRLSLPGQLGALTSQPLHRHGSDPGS", "assay": "primary screen, population patch clamp on CHO cells stably expressing hERG", "units": {"hERG current change (%, negative = inhibition) at 1uM": "%"}, "values": [{"smiles": "O=C(CCC(=O)N1CCCC1)Nc1nnc(C(F)(F)F)s1", "hERG current change (%, negative = inhibition) at 1uM": 6.08}, {"smiles": "COc1ccc2c(CC(=O)NCCN3C(=O)S/C(=C\\c4cccnc4)C3=O)coc2c1", "hERG current change (%, negative = inhibition) at 1uM": 13.3}, {"smiles": "COC(=O)c1ccc(NC(=O)CSc2nnc(COc3ccc4c(c3)CCCC4)o2)cc1", "hERG current change (%, negative = inhibition) at 1uM": 5.55}, {"smiles": "CC1C(=O)N2CCCc3cc(NC(=O)c4ccccc4F)cc1c32", "note": "(stereo not drawn)", "hERG current change (%, negative = inhibition) at 1uM": 3.99}, {"smiles": "O=C(COC(=O)COc1cccc(C(F)(F)F)c1)NC(=O)NC1CCCCC1", "hERG current change (%, negative = inhibition) at 1uM": -4.65}, {"smiles": "COc1ccc(NC(=O)CCCN2C(=O)/C(=C\\c3ccco3)SC2=S)cc1", "hERG current change (%, negative = inhibition) at 1uM": 14.9}, {"smiles": "COc1ccc(C(C(=O)NC(C)(C)C)N(C(=O)CCC(=O)Nc2cc(C)on2)c2c(C)cccc2C)cc1", "note": "(stereo not drawn)", "hERG current change (%, negative = inhibition) at 1uM": 10.2}, {"smiles": "CN(Cc1ccco1)S(=O)(=O)c1nnc(NC(=O)c2cccc(Cl)c2)s1", "hERG current change (%, negative = inhibition) at 1uM": 14}, {"smiles": "C=C(C)C(=O)OC1(C(F)(F)F)Oc2cc(C)ccc2NC1=O", "note": "(stereo not drawn)", "hERG current change (%, negative = inhibition) at 1uM": 9.34}, {"smiles": "O=C(Nc1ncc(Cc2ccccc2)s1)c1cccs1", "hERG current change (%, negative = inhibition) at 1uM": 8.34}, {"smiles": "O=C(CSc1nc2c(cnn2-c2ccc(F)cc2)c(=O)[nH]1)N1CCCCCC1", "hERG current change (%, negative = inhibition) at 1uM": 11}, {"smiles": "O=C(CN1CCN(Cc2ccccc2Cl)CC1)N/N=C/c1ccccn1", "hERG current change (%, negative = inhibition) at 1uM": 11.8}, {"smiles": "CC(C)CN(C(=O)COc1ccc([N+](=O)[O-])cc1)c1c(N)n(CC(C)C)c(=O)[nH]c1=O", "hERG current change (%, negative = inhibition) at 1uM": -3.6}, {"smiles": "O=C1CN(C(=O)CCN2CCOCC2)C(c2ccccc2)c2cc(Br)ccc2N1", "note": "(stereo not drawn)", "hERG current change (%, negative = inhibition) at 1uM": -8.54}, {"smiles": "COC(=O)C1=C(N)Oc2cc(C)n(Cc3ccccc3)c(=O)c2C1c1ccccc1", "note": "(stereo not drawn)", "hERG current change (%, negative = inhibition) at 1uM": -3.42}, {"smiles": "COc1ccc(NC(=O)CSc2nncs2)cc1OC", "hERG current change (%, negative = inhibition) at 1uM": 8.22}, {"smiles": "Cc1cccc(C(=O)Nc2cccc(OCC(=O)O)c2)c1", "hERG current change (%, negative = inhibition) at 1uM": 6.5}, {"smiles": "COC(=O)CSc1nc2nc(-c3cccs3)cc(C(F)(F)F)c2c(=O)[nH]1", "hERG current change (%, negative = inhibition) at 1uM": 11.4}, {"smiles": "O=C(c1ccccc1)N1CCSC1=S", "hERG current change (%, negative = inhibition) at 1uM": 3.13}, {"smiles": "Cc1occc1-c1nnc(SCc2cc(=O)n3cc(Br)ccc3n2)n1C", "hERG current change (%, negative = inhibition) at 1uM": -29.4}, {"smiles": "CCOc1ccc(C(=O)Nc2c3c(nn2-c2cccc(Cl)c2)CS(=O)C3)cc1", "note": "(stereo not drawn)", "hERG current change (%, negative = inhibition) at 1uM": -3.81}, {"smiles": "COC(=O)c1ccc(/C=N/OCC(=O)NCCc2ccc(OC)c(OC)c2)cc1", "hERG current change (%, negative = inhibition) at 1uM": 11.3}, {"smiles": "CCc1[nH]nc(C(=O)N2CCCC(N3CCN(c4ccccc4C)CC3)C2)c1C", "note": "(stereo not drawn)", "hERG current change (%, negative = inhibition) at 1uM": 1.71}, {"smiles": "C=CCOC(=O)c1sc(NC(=O)c2ccc(OC)cc2)nc1C", "hERG current change (%, negative = inhibition) at 1uM": 16.2}]}]}
